# From the RNAGym collection of RNA variant scans (doi:10.1073/pnas.2313332121)
# Variants at the background level are over-represented here.
# B1: TPR 5TU (parent)
# chain: GGAUCUUCUCGAUCUAACAAAAAAGACAAAUCUGCCACAAAGCUUGAGAGCAUCUUCGGAUGCAGAGGCGGCAGCCUUCGGUGGCGCGAUAGCGCCAACGUUCUCAACUAUGACACGCAAAACGCGUGCUCCGUUGAAUGGAGUUUAUCAUG
# Variants of: B1
# Assay: polymerase ribozyme fitness, log enrichment relative to wild type (log ratio); higher = more active; in vitro selection for triplet polymerase activity
# In short: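 PCR was used to build mutant libraries for each subunit of a heterodimeric triplet polymerase ribozyme, which were then transcribed. A single in vitro selection round, in triplicate, used a frozen incubation at −7 °C and recovered extended constructs by gel excision, streptavidin beads and RT-PCR. Fitness is the logarithm of genotype enrichment relative to wild-type enrichment, averaged over replicates with inverse-variance weights. The logarithm is base 2, and after Illumina sequencing only genotypes with ≥10 input reads and ≥1 read per output were kept.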
row,Variant,polymerase ribozyme fitness (log ratio)
1,A12G C27U A39C C57A C75A C79A G83U A121G,≤ -4.2
2,A12G C18A A24U C27A C103A U144A,≤ -4.2
3,A12G C27A C76A A147C U148A,≤ -4.2
4,A12G A47C A66G G81C C85U A110U,≤ -4.2
5,A12G C18G A29U G34A G74A G136A,≤ -4.2
6,A12U A49C G74A G86A A89U G92C C93A C114U A147C,≤ -4.2
7,A12G C32A G34U A52G C54U U55A C63U C85G G112A A120U U144G,≤ -4.2
8,A12U C87A U90C A113G C131U,≤ -4.2
9,A12G C93A,-2.26
10,A12G A28G A29U C99G G126U,≤ -4.2
11,A12G A52G A91C C95G C118G,≤ -4.2
12,A12G A47C A73U G88A C125U G133U,≤ -4.2
13,A12G G50A G74A C96U G128A,≤ -4.2
14,A12G G50A G83A A91G C108A A121C,≤ -4.2
15,A12G G65C,≤ -4.2
16,A12G U56A U144A,0.103
17,A12G A24U A26U U31G U55G C95G C116U,≤ -4.2
18,A12G U53A U56A U82G A91U G117C A142G,-4.16
19,A12U C36G G92U C125U C131U,≤ -4.2
20,A12G A21G C43U U55A G83U U144G,≤ -4.2
21,A12G A21U C27A G48C A49C C51A G84A C129A,≤ -4.2

row,Variant,polymerase ribozyme fitness (log ratio)
1,A12U G42C C72G C76A A91U A120U U144C,≤ -4.2
2,A12U C85A C93G A110U C116U U134G,≤ -4.2
3,A12G U55A G71A G80C,≤ -4.2
4,A12U G50U G83C C103A,≤ -4.2
5,A12G G50A A52G G83C A91C,≤ -4.2
6,A12U A28C A66U G86U,≤ -4.2
7,A12G G65C G94A G136U G143U,≤ -4.2
8,A12G A17C A20G A28G A49U U55A G59A C87G,≤ -4.2
9,A12G A21G U56A C87A U102G,≤ -4.2
10,A12G C87A C96U U135C,≤ -4.2
11,A12G A21G A37U C54G U77A A91C C93A,≤ -4.2
12,A12G C85G,-1.96
13,A12G C85U,0.000103
14,A12G C85A,-1.31
15,A12U U56C G59A G88C,≤ -4.2
16,A12G U61A A73U U77A,≤ -4.2
17,A12U A19C A24C A73G G81C G140U A150C,≤ -4.2
18,A12U U31G A39G U44G C54G C93U C105G C114A,≤ -4.2
19,U13A A20G A28G G48A U146C,≤ -4.2
20,A12G U13C G34A U55G U90C A91C,≤ -4.2
21,A12G A26G A37C G46A G59U A89U C93A,≤ -4.2

row,Variant,polymerase ribozyme fitness (log ratio)
1,A12G A30G U33G A40G U55C G58C G62A A66C A91G A107U,≤ -4.2
2,A12G C38A C96G,-0.0836
3,A12G A30U A37C C69G C93A C99A G128A U144A C149U U151G,≤ -4.2
4,A12U A20C C54G G86U A97G A107G A137C C149G,≤ -4.2
5,A12U A41U G68U G71C C76U G84C C105G,≤ -4.2
6,A12C U77G G94C C96G,≤ -4.2
7,A12G A29G G88U U90C G126A G152A,≤ -4.2
8,A12U A91C C99U G124C G140U A142C,≤ -4.2
9,A12G C96A U134C A138G G141C,-3.97
10,A12G U78G A89G C95U U109C U145C A150G,≤ -4.2
11,A12U C32U C75G U111C,≤ -4.2
12,A12G A49C G68A C131A G141A U146C U148A,≤ -4.2
13,A12G U31G A40C A52U U56A C93A U146G,≤ -4.2
14,U13A A28U C43U G65A A106G,≤ -4.2
15,A12G C14U G50A U53A C95U C99A C116U A150U,-4.15
16,A12G U13A U31A C57A G65A C85G,≤ -4.2
17,A12U A26U G46C C57U C93U C125G U127G A138G,≤ -4.2
18,A12U A23G G34C G83C C87U U101G G136A,≤ -4.2
19,A12G A22U G50C G80A U135G A150G,≤ -4.2
20,A12G G42C G92A C118U C123A,≤ -4.2
21,A12U U45G A49C C57A C87A G92A A110U,≤ -4.2

row,Variant,polymerase ribozyme fitness (log ratio)
1,U13A,-0.225
2,A12U G58A C85G A106G A137U A150C,≤ -4.2
3,A12G G25C A66C C93G C129A,≤ -4.2
4,A12U A24C G48C G58A A91C C95A,≤ -4.2
5,A12U A17C G59A G67U G83C U130G C132U U134C A150C,≤ -4.2
6,A12U G25A A41C G65A U77G G126A,≤ -4.2
7,A12U A49C G81C,≤ -4.2
8,A12C U15A C43U G50C G59C A60C G62C C93A A107U G124U U127G U145C U148A,≤ -4.2
9,A12G A19C A23U C54U G84C A97C A115C G124U U145C,≤ -4.2
10,A12U U45A A64C C93A,≤ -4.2
11,A12U A22G A24U C57A U77G G81U C99U G143A,≤ -4.2
12,U13A A24C G68A C96G,≤ -4.2
13,A12G C54U A73G G84C C96G C123U,≤ -4.2
14,A12U C85A,-1.85
15,A12G C54U C69G U145G,-4.06
16,A12G A21U U53A A91U U127G,≤ -4.2
17,A12U G25C C35U U77G G94U,≤ -4.2
18,A12U G46A A91U C93U C132A,≤ -4.2
19,A12U A19U A23C A29G C75G G84U U139A,≤ -4.2
20,A12U G50A U61C C87G C131G,≤ -4.2
21,A12U A20C A39G G50U A64U G86A A91C A119U,≤ -4.2
